Data from the supplement of paper PMC4967469.

Tests used:
Experiment in all cases: Viability of human cancer cell lines after 72 h of drug (GDSC screen)
[1] = compound: CCCC(=O)OCc1ccc(OC(=O)/C=C(C)/C=C/C=C(C)/C=C/C2=C(C)CCCC2(C)C)cc1 [VNLG/124]; conditions: top dose 5.12 µM; top dose inferred
Protocol: (§1)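 Human cancer cell lines in 384-well plates, medium with 10% serum, drug for 72 h over a 256-fold dose range (nine 2-fold or five 4-fold steps up to the top dose). Adherent lines were fixed and stained with the nucleic acid dye Syto60, suspension lines read with resazurin; signal relative to control wells, capped at 0 and 100%. One two-parameter sigmoid per drug and line, fitted in a mixed model over all curves with the slope shared within a line.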

[2] = compound: O=C(Nc1ccc(OC(F)(F)F)cc1)c1sccc1NCc1ccnc2ccccc12 [OSI-930]; conditions: top dose 10.24 µM
Protocol: as §1

[3] = compound: CC/C(=C(\c1ccccc1)c1ccc(OCCN(C)C)cc1)c1ccccc1 [Tamoxifen]; conditions: top dose 5 µM
Protocol: as §1

[4] = compound: Cc1ccc(NC(=O)c2ccc(CN3CCN(C)CC3)cc2)cc1Nc1nc(-c2cccnc2)cs1 [Masitinib]; conditions: top dose 20 µM
Protocol: as §1

[5] = compound: CN(NC(=O)CC(=O)NN(C)C(=S)c1ccccc1)C(=S)c1ccccc1 [Elesclomol]; conditions: top dose 0.2 µM; top dose inferred
Protocol: as §1

[6] = compound: O=C(Nc1cccc(Nc2ncc(Br)c(NCCc3cnc[nH]3)n2)c1)N1CCCC1 [BX-912]; conditions: top dose 10.24 µM; top dose inferred
Protocol: as §1

[7] = compound: O=S(=O)(O)c1ccc2cc(N=Nc3cc(S(=O)(=O)O)c4cccnc4c3O)ccc2c1 [NSC-87877]; conditions: top dose 16 µM; top dose inferred
Protocol: as §1

[8] = compound: O=C(/C=C/c1ccc(CN(CCO)CCc2c[nH]c3ccccc23)cc1)NO [LAQ824]; conditions: top dose 1.024 µM; top dose inferred
Protocol: as §1

[9] = compound: Cc1c(N)nc([C@H](CC(N)=O)NC[C@H](N)C(N)=O)nc1C(=O)N[C@H](C(=O)N[C@H](C)[C@@H](O)[C@H](C)C(=O)N[C@H](C(=O)NCCc1nc(-c2nc(C(=O)NCCC[S+](C)C)cs2)cs1)[C@@H](C)O)[C@@H](OC1OC(CO)C(O)C(O)C1OC1OC(CO)C(O)C(OC(N)=O)C1O)c1cnc[nH]1 [Bleomycin]
Protocol: as §1

[10] = top dose 50 µM, screen: GDSC drug entry 1378, top dose inferred
[11] = top dose 64 µM, screen: GDSC drug entry 190

Cell Line: MC116 (B-cell lymphoma, suspension)
- AUC [1]: 0.999
- IC50 [1]: > 5.12 µM
- AUC [2]: 0.999
- IC50 [2]: > 10.2 µM
- AUC [3]: 0.997
- IC50 [3]: > 5 µM
- AUC [4]: 0.927
- IC50 [4]: 14.2 µM
- AUC [5]: 0.997
- IC50 [5]: > 0.2 µM
- AUC [6]: 0.629
- IC50 [6]: 1.31 µM
- AUC [7]: 0.999
- IC50 [7]: > 16 µM
- AUC [8]: 0.341
- IC50 [8]: 0.0265 µM
- AUC [9, 10]: 0.99
- IC50 [9, 10]: > 50 µM
- AUC [9, 11]: 0.391
- IC50 [9, 11]: 2.18 µM

Cell Line: MC-IXC (neuroblastoma, adherent)
- AUC [1]: 0.996
- IC50 [1]: > 5.12 µM
- AUC [2]: 0.99
- IC50 [2]: > 10.2 µM
- AUC [3]: 0.996
- IC50 [3]: > 5 µM
- AUC [4]: 0.91
- IC50 [4]: 14.5 µM
- AUC [5]: 0.436
- IC50 [5]: 0.00877 µM
- AUC [6]: 0.841
- IC50 [6]: 4.53 µM
- AUC [7]: 0.991
- IC50 [7]: > 16 µM
- AUC [8]: 0.423
- IC50 [8]: 0.0417 µM
- AUC [9, 10]: 0.517
- IC50 [9, 10]: 3.44 µM
- AUC [9, 11]: 0.459
- IC50 [9, 11]: 3.18 µM

Cell Line: ME-1 (acute myeloid leukaemia, suspension)
- AUC [1]: 0.965
- IC50 [1]: > 5.12 µM
- AUC [2]: 0.974
- IC50 [2]: > 10.2 µM
- AUC [3]: 0.986
- IC50 [3]: > 5 µM
- AUC [4]: 0.987
- IC50 [4]: > 20 µM
- AUC [5]: 0.902
- IC50 [5]: > 0.2 µM
- AUC [6]: 0.98
- IC50 [6]: > 10.2 µM
- AUC [7]: 0.989
- IC50 [7]: > 16 µM
- AUC [8]: 0.437
- IC50 [8]: 0.0426 µM
- AUC [9, 10]: 0.977
- IC50 [9, 10]: > 50 µM
- AUC [9, 11]: 0.701
- IC50 [9, 11]: 15.4 µM

Cell Line: MEG-01 (chronic myeloid leukaemia, suspension)
- AUC [1]: 0.968
- IC50 [1]: > 5.12 µM
- AUC [2]: 0.855
- IC50 [2]: 7.42 µM
- AUC [3]: 0.987
- IC50 [3]: > 5 µM
- AUC [4]: 0.234
- IC50 [4]: 0.225 µM
- AUC [5]: 0.977
- IC50 [5]: > 0.2 µM
- AUC [6]: 0.87
- IC50 [6]: 8.62 µM
- AUC [7]: 0.985
- IC50 [7]: > 16 µM
- AUC [8]: 0.372
- IC50 [8]: 0.0291 µM
- AUC [9, 10]: 0.911
- IC50 [9, 10]: > 50 µM
- AUC [9, 11]: 0.351
- IC50 [9, 11]: 1.59 µM

Cell Line: MEL-JUSO (melanoma, adherent)
- AUC [1]: 0.981
- IC50 [1]: > 5.12 µM
- AUC [2]: 0.956
- IC50 [2]: > 10.2 µM
- AUC [3]: 0.978
- IC50 [3]: > 5 µM
- AUC [4]: 0.852
- IC50 [4]: 18.3 µM
- AUC [5]: 0.485
- IC50 [5]: 0.0113 µM
- AUC [6]: 0.813
- IC50 [6]: 6.38 µM
- AUC [7]: 0.96
- IC50 [7]: > 16 µM
- AUC [8]: 0.435
- IC50 [8]: 0.0416 µM
- AUC [9, 10]: 0.468
- IC50 [9, 10]: 2.53 µM
- AUC [9, 11]: 0.095
- IC50 [9, 11]: < 0.25 µM

Cell Line: MFH-ino (soft tissue, adherent)
- AUC [1]: 0.981
- IC50 [1]: > 5.12 µM
- AUC [2]: 0.965
- IC50 [2]: > 10.2 µM
- AUC [3]: 0.976
- IC50 [3]: > 5 µM
- AUC [4]: 0.973
- IC50 [4]: > 20 µM
- AUC [5]: 0.555
- IC50 [5]: 0.0182 µM
- AUC [6]: 0.931
- IC50 [6]: > 10.2 µM
- AUC [7]: 0.983
- IC50 [7]: > 16 µM
- AUC [8]: 0.413
- IC50 [8]: 0.0355 µM
- AUC [9, 10]: 0.37
- IC50 [9, 10]: 1.28 µM
- AUC [9, 11]: 0.054
- IC50 [9, 11]: < 0.25 µM

Cell Line: MHH-PREB-1 (B-cell leukaemia, suspension)
- AUC [1]: 0.969
- IC50 [1]: > 5.12 µM
- AUC [2]: 0.962
- IC50 [2]: > 10.2 µM
- AUC [3]: 0.932
- IC50 [3]: > 5 µM
- AUC [4]: 0.882
- IC50 [4]: 17.3 µM
- AUC [5]: 0.579
- IC50 [5]: 0.0201 µM
- AUC [6]: 0.961
- IC50 [6]: > 10.2 µM
- AUC [7]: 0.981
- IC50 [7]: > 16 µM
- AUC [8]: 0.343
- IC50 [8]: 0.0247 µM
- AUC [9, 10]: 0.915
- IC50 [9, 10]: > 50 µM
- AUC [9, 11]: 0.898
- IC50 [9, 11]: > 64 µM

Cell Line: MKN45 (stomach, adherent)
- AUC [1]: 0.977
- IC50 [1]: > 5.12 µM
- AUC [2]: 0.975
- IC50 [2]: > 10.2 µM
- AUC [3]: 0.978
- IC50 [3]: > 5 µM
- AUC [4]: 0.964
- IC50 [4]: > 20 µM
- AUC [5]: 0.661
- IC50 [5]: 0.0396 µM
- AUC [6]: 0.919
- IC50 [6]: > 10.2 µM
- AUC [7]: 0.933
- IC50 [7]: > 16 µM
- AUC [8]: 0.582
- IC50 [8]: 0.114 µM
- AUC [9, 10]: 0.899
- IC50 [9, 10]: > 50 µM
- AUC [9, 11]: 0.103
- IC50 [9, 11]: < 0.25 µM

Cell Line: MOLP-8 (myeloma, suspension)
- AUC [1]: 0.987
- IC50 [1]: > 5.12 µM
- AUC [2]: 0.912
- IC50 [2]: > 10.2 µM
- AUC [3]: 0.985
- IC50 [3]: > 5 µM
- AUC [4]: 0.784
- IC50 [4]: 8.16 µM
- AUC [5]: 0.563
- IC50 [5]: 0.0185 µM
- AUC [6]: 0.251
- IC50 [6]: 0.128 µM
- AUC [7]: 0.984
- IC50 [7]: > 16 µM
- AUC [8]: 0.191
- IC50 [8]: 0.00801 µM
- AUC [9, 10]: 0.664
- IC50 [9, 10]: 8.75 µM
- AUC [9, 11]: 0.466
- IC50 [9, 11]: 3.24 µM

Cell Line: MONO-MAC-6 (acute myeloid leukaemia, suspension)
- AUC [1]: 0.854
- IC50 [1]: 4.39 µM
- AUC [2]: 0.951
- IC50 [2]: > 10.2 µM
- AUC [3]: 0.97
- IC50 [3]: > 5 µM
- AUC [4]: 0.853
- IC50 [4]: 17 µM
- AUC [5]: 0.832
- IC50 [5]: 0.138 µM
- AUC [6]: 0.103
- IC50 [6]: < 0.04 µM
- AUC [7]: 0.983
- IC50 [7]: > 16 µM
- AUC [8]: 0.392
- IC50 [8]: 0.0318 µM
- AUC [9, 10]: 0.842
- IC50 [9, 10]: 38 µM
- AUC [9, 11]: 0.495
- IC50 [9, 11]: 3.86 µM

Cell Line: MPP-89 (mesothelioma, adherent)
- AUC [1]: 0.982
- IC50 [1]: > 5.12 µM
- AUC [2]: 0.969
- IC50 [2]: > 10.2 µM
- AUC [3]: 0.954
- IC50 [3]: > 5 µM
- AUC [4]: 0.98
- IC50 [4]: > 20 µM
- AUC [5]: 0.345
- IC50 [5]: 0.00405 µM
- AUC [6]: 0.939
- IC50 [6]: > 10.2 µM
- AUC [7]: 0.98
- IC50 [7]: > 16 µM
- AUC [8]: 0.663
- IC50 [8]: 0.21 µM
- AUC [9, 10]: 0.884
- IC50 [9, 10]: > 50 µM
- AUC [9, 11]: 0.712
- IC50 [9, 11]: 19.3 µM

Lines with a small IC50 respond at low doses; fits outside the tested doses are given as limits. AUC is the area under the same curve over the 256-fold range up to the top dose, as a fraction; it is 1 without any effect and falls as sensitivity rises. For some of these results: The top dose, if marked as inferred, was calculated from the reported fits. For some of these results: Drugs with an entry number were screened twice under separate entries, and the two screens often disagree.
